# Measured values from the supplement of paper PMC8728848.
# Some of the results follow.
# How the values were obtained:
# Test in all cases: glycan array binding signal (z-score within array); higher = stronger binding
# Conditions in all cases: glycan notation: IUPAC condensed, linker removed
# [1] = target: Gal(b1-3)GalNAc
# How it was run: (§1)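 Glycan array binding is given as a within-array Z-score, which can be read as non-binding when negative. The arrays, 3228 of them, came from the Consortium for Functional Glycomics database and were retained only where the protein sequence was available. Z-scores were averaged across arrays of the same protein sequence at different concentrations or buffers and across linkers.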
# [2] = target: Gal(b1-3)GalNAc(b1-3)Gal(a1-4)Gal(b1-4)Glc
# How it was run: as §1
# [3] = target: Gal(b1-3)GalNAc(b1-3)Gal(b1-4)Glc
# How it was run: as §1
# [4] = target: Gal(b1-3)GalNAc(b1-3)Gal(b1-4)GlcNAc
# How it was run: as §1
# [5] = target: Gal(b1-3)GalNAc(b1-4)Gal(b1-4)Glc
# How it was run: as §1
# [6] = target: Gal(b1-3)GalNAc(b1-4)[Neu5Ac(a2-3)]Gal(b1-4)Glc
# How it was run: as §1
# [7] = target: Gal(b1-3)GlcNAc(b1-3)Gal(b1-3)GlcNAc
# How it was run: as §1
# [8] = target: Gal(b1-3)[Fuc(a1-4)]GlcNAc
# How it was run: as §1
# [9] = target: Gal(b1-3)[Fuc(a1-4)]GlcNAc(b1-3)Gal(b1-3)[Fuc(a1-4)]GlcNAc
# How it was run: as §1
# [10] = target: Gal(b1-3)[Fuc(a1-4)]GlcNAc(b1-3)Gal(b1-4)GlcNAc
# How it was run: as §1
# [11] = target: Gal(b1-3)[Fuc(a1-4)]GlcNAc(b1-3)Gal(b1-4)[Fuc(a1-3)]GlcNAc
# How it was run: as §1
# [12] = target: Gal(b1-3)[GlcNAc(b1-6)]GalNAc
# How it was run: as §1
# [13] = target: Gal(b1-3)[GlcNAc(b1-6)]GlcNAc
# How it was run: as §1
# [14] = target: Gal(b1-3)[Neu5Ac(a2-6)]GalNAc
# How it was run: as §1
# [15] = target: Gal(b1-3)[Neu5Ac(a2-6)]GlcNAc
# How it was run: as §1
# [16] = target: Gal(b1-3)[Neu5Ac(a2-6)]GlcNAc(a1-4)Gal(b1-4)Glc
# How it was run: as §1
# [17] = target: Gal(b1-3)[Neu5Ac(b2-6)]GlcNAc
# How it was run: as §1
# [18] = target: Gal(b1-4)GalNAc(a1-3)[Fuc(a1-2)]Gal(b1-4)GlcNAc
# How it was run: as §1
# [19] = target: Gal(b1-4)GalNAc(b1-3)[Fuc(a1-2)]Gal(b1-4)GlcNAc
# How it was run: as §1
# [20] = target: Gal(b1-4)Glc
# How it was run: as §1
# [21] = target: Gal(b1-4)Glc6S
# How it was run: as §1
# [22] = target: Gal(b1-4)GlcNAc
# How it was run: as §1
# [23] = target: Gal(b1-4)GlcNAc(b1-2)Man(a1-3)[Gal(b1-4)GlcNAc(b1-2)Man(a1-6)]Man(b1-4)GlcNAc(b1-4)GlcNAc
# How it was run: as §1
# [24] = target: Gal(b1-4)GlcNAc(b1-3)Gal(b1-3)GlcNAc
# How it was run: as §1
# [25] = target: Gal(b1-4)GlcNAc(b1-3)Gal(b1-4)Glc
# How it was run: as §1
# [26] = target: Gal(b1-4)GlcNAc(b1-3)Gal(b1-4)GlcNAc
# How it was run: as §1
# [27] = target: Gal(b1-4)GlcNAc(b1-3)Gal(b1-4)GlcNAc(b1-3)Gal(b1-4)GlcNAc
# How it was run: as §1
# [28] = target: Gal(b1-4)GlcNAc(b1-3)Gal(b1-4)[Fuc(a1-3)]GlcNAc(b1-3)Gal(b1-4)[Fuc(a1-3)]GlcNAc
# How it was run: as §1
# [29] = target: Gal(b1-4)GlcNAc(b1-3)GalNAc
# How it was run: as §1
# [30] = target: Gal(b1-4)GlcNAc(b1-3)[Gal(b1-4)GlcNAc(b1-6)]GalNAc
# How it was run: as §1
# [31] = target: Gal(b1-4)GlcNAc(b1-6)GalNAc
# How it was run: as §1
# [32] = target: Gal(b1-4)GlcNAc(b1-6)[Gal(b1-3)]GalNAc
# How it was run: as §1
# [33] = target: Gal(b1-4)GlcNAc(b1-6)[Gal(b1-3)]GlcNAc
# How it was run: as §1
# [34] = target: Gal3S(b1-3)GalNAc
# How it was run: as §1
# [35] = target: Gal3S(b1-3)GlcNAc
# How it was run: as §1
# [36] = target: Gal3S(b1-3)[Fuc(a1-4)]GlcNAc
# How it was run: as §1
binder,measurement,setting,value
STA (Solanum tuberosum) (protein) NASAPLPYPQCGLKKGGGKCIKTGECCSIWGWCGTTSDYCAPGYCQKQCPGPYPQGRCGWQANGKSCPTGTGQCCSNAGWCGTTSDYCAPNNCQSQCKLPPPPPSPPPPPPSPPPPSPPPPPPSPPPPSPSPPPPPPSPPPPSPPPPSPPPPSPPPPPSPSPPPPPPSPPPPPPPLPYPQCGMKKGGGKCIKTGECCSIWGWCGTTSKYCSPGYCQMQCPDPYPEGRCGWQANGKSCPTGTGQCCSNAGWCGTTSAYCAPVNCQAQCNTTTLTSPIKNRMRGIESFMLNVV,glycan array binding signal (z-score),[1],-0.505
same,glycan array binding signal (z-score),[2],-0.513
same,glycan array binding signal (z-score),[3],-0.496
same,glycan array binding signal (z-score),[4],0.265
same,glycan array binding signal (z-score),[5],-0.507
same,glycan array binding signal (z-score),[6],-0.504
same,glycan array binding signal (z-score),[7],-0.498
same,glycan array binding signal (z-score),[8],-0.507
same,glycan array binding signal (z-score),[9],-0.498
same,glycan array binding signal (z-score),[10],-0.505
same,glycan array binding signal (z-score),[11],-0.508
same,glycan array binding signal (z-score),[12],-0.415
same,glycan array binding signal (z-score),[13],-0.18
same,glycan array binding signal (z-score),[14],-0.505
same,glycan array binding signal (z-score),[15],-0.511
same,glycan array binding signal (z-score),[16],-0.498
same,glycan array binding signal (z-score),[17],-0.511
same,glycan array binding signal (z-score),[18],0.918
same,glycan array binding signal (z-score),[19],0.033
same,glycan array binding signal (z-score),[20],-0.505
same,glycan array binding signal (z-score),[21],-0.488
same,glycan array binding signal (z-score),[22],1.65
same,glycan array binding signal (z-score),[23],-0.311
same,glycan array binding signal (z-score),[24],-0.498
same,glycan array binding signal (z-score),[25],-0.501
same,glycan array binding signal (z-score),[26],1.71
same,glycan array binding signal (z-score),[27],0.087
same,glycan array binding signal (z-score),[28],-0.51
same,glycan array binding signal (z-score),[29],-0.497
same,glycan array binding signal (z-score),[30],-0.506
same,glycan array binding signal (z-score),[31],2.69
same,glycan array binding signal (z-score),[32],-0.499
same,glycan array binding signal (z-score),[33],-0.391
same,glycan array binding signal (z-score),[34],-0.483
same,glycan array binding signal (z-score),[35],-0.498
same,glycan array binding signal (z-score),[36],-0.49
